Target: PRMT5/MEP50 Complex (Homo sapiens (Human), UniProt O14744)
Assay: PRMT5 inhibition based on TR-FRET assay
Format: biochemical
Details: 32 nM PRMT5:MEP50 complex, 50 nM Histone-H4 peptide, 1 μM SAM, 90 minutes at room temperature
From the text: Protein arginine methyltransferase 5 (PRMT5) is a type II arginine methyltransferase that catalyze mono- and symmetric demethylation on arginine residues of histone or non-histone proteins in presence of S-adenosylmethionine (AdoMet or SAM) a cofactor responsible for donating the methyl group. PRMT5 is reported to be overexpressed in several human cancers. To identify compounds that inhibit the PRMT5 and decrease its activity, a TR-FRET based assay has been established. Time-resolved fluorescence resonance energy transfer (TR-FRET) HTS assays are homogeneous proximity assays where the interaction of two dye-labeled binding partners is detected by the energy transfer between a donor and an acceptor dye, and the subsequent light emission by the acceptor dye. PRMT5 catalyzes Histone H4 peptide which is biotin tagged to the Lysine amino acid at carboxyl end, in presence of S-adenosyl-1-methionine (SAM) to methylate the peptide. The antibody specific to mono methylated H4 peptide (H4R3) with Ig conjugate binds to the methylated peptide, indirectly binding to the Europium lanthanide. […]
The compound dilutions were prepared as 7.5% DMSO stock solutions in assay buffer. […] The plates were then read on Victor-3 with Excitation at 340 nm and Emissions collected at 615 and 665 nm in TR-FRET protocol. […]

IC50 [µM]	SMILES
0.061	CC1(C)C(=O)N(Cc2ccc(C3CC3)nc2)C(=O)N1CC(O)CN1CCc2ccccc2C1 (centres unmarked) [Compound 76, 3-((6-cyclopropylpyridin-3-yl)methyl)-1-(3-(3,4-dihydroisoquinolin-2(1H)-yl)-2-hydroxypropyl)-5,5-dimethylimidazolidine-2,4-dione]
0.207	O=C1N(Cc2ccc(C3CC3)nc2)CCN1CC(O)CN1CCc2ccccc2C1 (centres unmarked) [Compound 75, 1-((6-cyclopropylpyridin-3-yl)methyl)-3-(3-(3,4-dihydroisoquinolin-2(1H)-yl)-2-hydroxypropyl)imidazolidin-2-one]
